Where “and” joins values, the source holds several entries; their conditions need not be identical. Identical values can stand only once. The campaign covered roughly 290,000 compounds. About 2,100 (0.72%) were called active. The shares of active, inactive and inconclusive entries below differ from those in the screen. Calls follow the shape of the dose curve; as a rule, active = well fitted inhibition curve with a large enough effect; inconclusive = small, poorly fitted or top-dose-only effect, or effect the other way; inactive = flat fitted curve, though single readings scatter. A potency beside an inconclusive call is a rough fit, not a confirmed value.
Each compound was assayed against Fructose-bisphosphate aldolase (Giardia intestinalis (strain ATCC 50803 / WB clone C6)) (UniProt A8B2U2) (assay: qHTS Assay for Inhibitors of Fructose-1,6-bisphosphate Aldolase from Giardia Lamblia). Details: purified Giardia FBPA; activity, negative = inhibition: at 59.6 µM (top of the series) unless noted.
Chain of UniProt A8B2U2 (A8B2U2 whole entry, looked up): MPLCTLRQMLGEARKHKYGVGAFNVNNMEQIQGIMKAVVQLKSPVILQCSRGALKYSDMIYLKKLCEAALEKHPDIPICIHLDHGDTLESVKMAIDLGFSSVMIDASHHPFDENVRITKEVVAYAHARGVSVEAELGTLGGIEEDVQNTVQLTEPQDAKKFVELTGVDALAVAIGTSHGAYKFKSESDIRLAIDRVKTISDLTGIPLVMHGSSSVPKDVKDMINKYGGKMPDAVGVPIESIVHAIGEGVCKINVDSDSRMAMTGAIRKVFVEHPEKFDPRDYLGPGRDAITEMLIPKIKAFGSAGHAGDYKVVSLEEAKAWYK
Outline: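 40 nM FBPA preincubated 10 min at RT with compound (up to 57.5 uM final), then substrate plus GAPDH/TPI/NAD/arsenate coupling and diaphorase/resazurin added. Fluorescence read after 20 min at RT, 525/598 nm.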
In the case of CC(=O)[C@@]1(O)CC[C@H]2C3CCC4=CC(=O)CC[C@]4(C)C3CC[C@@]21C (some centres undefined), the Potency is reported as “inactive”. In the case of Cc1ccc(C(=O)N2CCn3c(C)ccc3C2C)cc1 (centres undefined), the Potency is reported as inconclusive: 15.8 µM [inhibitor, partial curve]. With COC(=O)C1=C(C)NC(=O)/C1=C/c1ccc(CNS(=O)(=O)c2ccc(C)cc2)o1 the Potency was inconclusive: 15.8 µM [inhibitor, partial curve]. C/C(=N/NC(=O)CC1N=C(Cc2ccccc2)NNC1=O)c1cccnc1 (centres undefined) was tested, and the Potency was “inactive”. COc1cc(C2OC(=O)c3ccccc3S2)cc(OC)c1OC (centres undefined) was tested, and the Potency was “inactive”. CSc1sc(C)cc1C1C(C#N)=C(N)N(c2cccnc2)C2=C1C(=O)CCC2 (centres undefined) was tested, and the Potency was inconclusive: 17.7 µM [inhibitor, single point]. Cc1ccc(C)c(NC(=O)CCOc2ccccc2)c1 was tested, and the Potency was “inactive”. In the case of C/C(CC(=O)Nc1ccc(F)cc1F)=N\NC(=O)C(=O)N1CCCCC1, the Potency is reported as “inactive”. In the case of O=c1c2ccccc2cnn1Cc1ccc(Cl)c(Cl)c1, the Potency is reported as “inactive”. In the case of Cc1ccc(NC(=O)CNc2ccc(OC(C)C)cc2)c(C)c1, the Potency is reported as inconclusive: 17.7 µM [inhibitor, partial curve]. In the case of Clc1nc(CN2CCOCC2)nc2sc3c(c12)CCC3, the Potency is reported as “inactive”. COCCCn1[nH]c2c3c(ccc2c1=O)C(=O)c1ccccc1C3=O was tested, and the Potency was inconclusive: 5.61 µM [inhibitor, partial curve]. CNC(=S)Nc1ccc(C)c(NC(=S)NC)c1 was tested, and the Potency was inconclusive: 7.92 µM [inhibitor, partial curve]. With COc1ccccc1OCC#CCN1CCCC(C)C1 (centres undefined) the Potency was inconclusive: 7.92 µM [inhibitor, single point]. With Cc1ccc(-n2nc(C)c3c2OC(N)=C(C#N)C3c2ccc(C)o2)cc1 (centres undefined) the Potency was inconclusive: 17.7 µM [inhibitor, single point]. Cc1c(/C=N/Nc2ccc([N+](=O)[O-])cn2)c2ccccc2n1Cc1ccccc1 was tested, and the Potency was “inactive”. O=C(Oc1c(CN2CCOCC2)cc(Cl)c2cccnc12)c1ccccc1Br was tested, and the Potency was inconclusive: 17.7 µM [inhibitor, single point]. CCOC(=O)c1ccc(N2C(=O)CC(SCC(N)C(=O)OCC)C2=O)cc1 (centres undefined) was tested, and the Potency was “inactive”. With O=C(CN1CCN(c2ccccc2F)CC1)c1ccc2cc[nH]c2c1 the Potency was “inactive”. With CN1C(=O)/C(=C/c2ccccc2OCc2cccc(F)c2)N(C)C1=S the Potency was inconclusive: 17.7 µM [inhibitor, partial curve]. In the case of C/C=C/c1ccccc1OCc1ccc(C(=O)O)o1, the Potency is reported as inconclusive: 22.3 µM [activator, partial curve]. For COc1ccc(C)cc1NC(=O)C(NCC(O)c1ccccc1)c1ccccc1 (centres undefined), the Potency was active: 12.6 µM. For Cc1ccc(C(=O)NC2CC(C)(C)NC(C)(C)C2)cc1, the Potency was “inactive”. In the case of Cc1cc(OCCn2ccnc2)ccc1C(C)C, the Potency is reported as inconclusive: 22.3 µM [inhibitor, single point]. In the case of O=C(NCCN1CCOCC1)NC1(C(F)(F)F)Oc2ccc(Cl)cc2O1 (centres undefined), the Potency is reported as inconclusive: 22.3 µM [inhibitor, partial curve]. COc1ccc(Cn2ccnc2SCC(=O)Nc2nnc(C)s2)cc1 was tested, and the Potency was inconclusive: 12.6 µM [inhibitor, partial curve]. COc1ccc2c3c1OC1CC(O)C=CC31CCN(C)C2 (centres undefined) was tested, and the Potency was inconclusive: 28.2 µM [inhibitor, single point]. For O=S(=O)(Oc1ccccc1/C=N/n1cnnc1)c1ccccc1, the Potency was active: 19.9 µM. Cc1ccc(C2C3CSCC=C3C(C#N)=C(N)C2(C#N)C#N)cc1 (centres undefined) was tested, and the Potency was inconclusive: 22.4 µM [inhibitor, single point]. COc1ccc(CCN(C)C/C=C/c2ccccc2)cc1OC was tested, and the Potency was inconclusive: 28.2 µM [inhibitor, partial curve]. For CCCCC1=CC2=CC(=O)C(C)(OC(=O)CC)C(=O)C2=CN1CCCCO (centres undefined), the Potency was inconclusive: 630 nM [inhibitor, partial curve] and inconclusive: 1.12 µM [inhibitor, partial curve]. COc1ccccc1Nc1nc(N)nc(CCl)n1 was tested, and the Potency was “inactive”. FC(F)Sc1ccc(NC(=S)NC(c2ccccc2)c2ccccc2)cc1 was tested, and the Potency was “inactive”. For COc1cc(C2C(C#N)=C(N)Oc3c2ccc2ccccc32)ccc1OCC(=O)Nc1cccc(C)c1 (centres undefined), the Potency was inconclusive: 14.1 µM [inhibitor, partial curve]. For O=c1ccc2cc3c([nH]c4ccc(Br)cc43)oc-2c1O, the Potency was active: 14.1 µM. In the case of O=C(NC(=S)Nc1nc2c(s1)CSc1ccccc1-2)c1ccccc1, the Potency is reported as inconclusive: 15.8 µM [inhibitor, partial curve]. COc1ccccc1CNC(=O)c1c(N)n(CCCN2CCOCC2)c2nc3ccccc3nc12 was tested, and the Potency was inconclusive: 3.15 µM [inhibitor, partial curve]. For Cc1ccc(S(=O)(=O)Nc2nnc(C3CCCCC3)s2)cc1, the Potency was “inactive”. In the case of O=C(O)c1ncn(Cc2ccccc2)c1C(=O)O, the Potency is reported as active: 7.92 µM. Cc1ccc(CN2CCN(C(=O)CC(C)C)CC2)cc1 was tested, and the Potency was inconclusive: 12.6 µM [inhibitor, partial curve]. With Oc1ccc(NCc2cccc(OCc3ccc(F)cc3)c2)cc1 the Potency was active: 17.7 µM. With O=C1C2C3c4ccccc4C(c4ccccc43)[C@@H]2C(=O)N1c1nc(-c2ccccc2)cs1 (some centres undefined) the Potency was inconclusive: 19.9 µM [activator, single point]. With Cc1ccc(C(=O)NC(=S)Nc2cccnc2Cl)cc1 the Potency was inconclusive: 11.2 µM [inhibitor, partial curve]. With CCCCn1cnc2c(=S)nc(N)[nH]c21 the Potency was active: 7.06 µM. For CCOc1ccc(NC(=O)Cc2ccc(NC3=NC4CS(=O)(=O)CC4S3)cc2)cc1 (centres undefined), the Potency was inconclusive: 15.8 µM [inhibitor, partial curve]. CC(CN1CCOCC1)OC(=O)c1ccc(Cl)cc1Cl (centres undefined) was tested, and the Potency was inconclusive: 39.8 µM [inhibitor, single point]. For COc1ccc(/C=C2\C(=O)NC(=S)N(C)C2=O)cc1C, the Potency was inconclusive: 35.4 µM [inhibitor, single point]. With O=C1C=C(Nc2ccc(O)cc2)C(=O)c2ccccc21 the Potency was inconclusive: 7.06 µM [inhibitor, partial curve]. With COc1cc(SC)ccc1C(=O)Nc1ccc2c(c1)OCCO2 the Potency was “inactive”. CCN(CC)S(=O)(=O)c1ccc(NC2CCCc3ccccc32)nc1 (centres undefined) was tested, and the Potency was inconclusive: 19.9 µM [inhibitor, single point]. With Cc1ccc(C(C[N+](=O)[O-])c2c(C)[nH]n(-c3ccccc3)c2=O)cc1 (centres undefined) the Potency was inconclusive: 5.61 µM [inhibitor, partial curve]. COc1ccc(-c2cc(C(=O)N3CCOCC3)no2)cc1OC was tested, and the Potency was “inactive”. With Cn1c(NC(=O)/C=C\c2ccccc2)cc(=O)n(C)c1=O the Potency was “inactive”. O=C(N/N=C\c1ccc(-c2ccccc2[N+](=O)[O-])o1)C1COc2ccccc2O1 (centres undefined) was tested, and the Potency was inconclusive: 22.3 µM [inhibitor, partial curve]. In the case of CO[C@H]1COC(=O)C/C=C\[C@H](C)[C@H](OC)COC(=O)[C@@H](C)COC(=O)C/C=C\[C@@H]1C, the activity, negative = inhibition is reported as inactive: 0.971% [at 12.9 µM] and inactive: -6.31% [at 12.9 µM]. With CC(C)(C)c1nnc2sc(SCC(=O)c3ccccc3)nn2c1=O the Potency was “inactive”. For C=C(CC)C(=O)c1ccc(OCC(=O)O)c(Cl)c1Cl, the Potency was inconclusive: 17.7 µM [activator, single point]. With CCc1cc(-c2n[nH]c(C)c2-c2nc(C)cs2)c(O)cc1OC the Potency was inconclusive: 15.8 µM [inhibitor, partial curve]. O=c1c2c(nc3cc(-c4ccccc4Cl)[nH]n13)CCS2 was tested, and the Potency was inconclusive: 12.6 µM [inhibitor, partial curve]. CCC(C)NCCOc1ccc(C(C)(C)c2ccccc2)cc1 (centres undefined) was tested, and the Potency was active: 17.7 µM. O=C1/C(=C/c2ccccn2)SC(=S)N1c1cccc(O)c1 was tested, and the Potency was “inactive”. In the case of Cc1nonc1C(=O)N/N=C/c1ccc([N+](=O)[O-])o1, the Potency is reported as inconclusive: 12.6 µM [inhibitor, partial curve]. With O=C(N/N=C/C=C/c1ccco1)c1cccnc1 the Potency was inconclusive: 15.8 µM [inhibitor, single point]. OC(CSc1ccc(F)cc1)CN1CCN(c2ccccc2)CC1 (centres undefined) was tested, and the Potency was “inactive”. COc1ccc(CNCc2ccccc2C(F)(F)F)cc1 was tested, and the Potency was inconclusive: 28.2 µM [inhibitor, partial curve]. With CC(C)=CCC/C(C)=C/CC/C(C)=C/CC/C(C)=C/C(=O)O the Potency was inconclusive: 22.3 µM [activator, single point]. In the case of O=S(=O)(c1cccs1)N1CCCc2cccc(O)c21, the Potency is reported as inconclusive: 19.9 µM [inhibitor, partial curve]. For COc1ccc(C2CC(=O)N3CN(c4ccc(C)c(Cl)c4)CSC3=C2C#N)cc1 (centres undefined), the Potency was inconclusive: 0.998 µM [inhibitor, full curve]. In the case of CN(C)c1ccc(C2C3=C(CCCC3=O)OC3=C2C(=O)CCC3)cc1, the Potency is reported as inconclusive: 28.2 µM [inhibitor, single point]. For CN(C)c1ccc(/C=C/C=C/c2sc3ccccc3[n+]2C)cc1, the Potency was “inactive”. With COc1ccc(N/C(=C(/C(Cl)=C(Cl)Cl)[N+](=O)[O-])n2nnc3ccccc32)cc1 the Potency was inconclusive: 15.8 µM [inhibitor, single point]. In the case of Cc1ccccc1CSCC(=O)N1CCN(c2ccccc2)CC1, the Potency is reported as “inactive”. COc1cc(CN2CCN(c3ncccn3)CC2)cc(OC)c1 was tested, and the Potency was inconclusive: 22.4 µM [inhibitor, partial curve]. For CC(=O)Nc1ccc2c3c(cccc13)C(=O)N(c1ccccc1)C2=O, the Potency was “inactive”.
% is scaled to controls: 0 for no effect and ±100 for the full control effect; potency is read from the fitted curve at half-maximal effect; tags tell the direction and shape of the fitted curve.
Also: nearly all actives have a fitted effect of over 55% in size.
